Test results published in PubChem BioAssay AID1347055 (National Center for Advancing Translational Sciences (NCATS), 2019).
Hit rate of the full screen: of about 54,000 compounds, about 120 (0.22%) were called active. This list was built around the results that the source calls inconclusive (neither active nor inactive); the mix of calls is not that of the screen. Calls follow the shape of the dose curve; as a rule, active = well fitted inhibition curve with a large enough effect; inconclusive = small, poorly fitted or top-dose-only effect, or effect the other way; inactive = flat fitted curve, though single readings scatter. No potency is given beside an inconclusive call; the fits are too rough.

Each compound was assayed against Fumarate hydratase, mitochondrial (Homo sapiens) (UniProt P07954) (assay: Identification of activators of human fumarate hydratase by quantitative high-throughput screening). Settings: FH coupled MDH/diaphorase resazurin fluorescence, 15 min; activity change, negative = inhibition: at 79.9 µM (top of the series).
UniProt P07954, sequence (P07954 whole entry, looked up): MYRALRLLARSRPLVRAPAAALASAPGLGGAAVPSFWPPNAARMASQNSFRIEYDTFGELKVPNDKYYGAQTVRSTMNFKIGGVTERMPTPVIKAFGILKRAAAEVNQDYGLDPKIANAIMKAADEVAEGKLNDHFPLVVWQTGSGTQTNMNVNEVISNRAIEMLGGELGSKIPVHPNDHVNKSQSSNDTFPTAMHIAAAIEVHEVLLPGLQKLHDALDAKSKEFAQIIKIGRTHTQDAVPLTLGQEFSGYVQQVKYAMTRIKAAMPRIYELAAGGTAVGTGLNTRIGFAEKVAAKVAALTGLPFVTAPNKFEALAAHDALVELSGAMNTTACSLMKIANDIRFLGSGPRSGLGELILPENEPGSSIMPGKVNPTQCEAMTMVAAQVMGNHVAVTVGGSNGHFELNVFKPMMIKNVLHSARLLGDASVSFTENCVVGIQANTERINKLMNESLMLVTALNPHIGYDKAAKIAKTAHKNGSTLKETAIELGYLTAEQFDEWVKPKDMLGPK
% is scaled to controls: 0 for no effect and ±100 for the full control effect; potency is read from the fitted curve at half-maximal effect; tags tell the direction and shape of the fitted curve.
Also: the screen sought activators but most active calls are inhibition curves; nearly all actives have a fitted effect of over 45% in size.

Row | SMILES | Potency | activity change, negative = inhibition
1 | c1ccc(-c2ncc(CN3CCN(c4ncccn4)CC3)[nH]2)cc1 | inactive | 
2 | CCc1nc2ccc(C(=O)N3CCN(c4ccccc4)CC3)cc2nc1CC |  | inconclusive: -34.1% [inhibitor]
3 | Cc1nc(N2C(=O)c3oc4ccccc4c(=O)c3C2c2cccc(OCCC(C)C)c2)sc1C (centres undefined) | inconclusive [inhibitor, partial curve, poor fit] | 
4 | CCn1cc(C(=O)N2CCN(c3cccc(C(F)(F)F)c3)CC2)c2cc(OC)c(OC)cc2c1=O | inactive | 
5 | Cc1ccc(CNC(=O)c2cc3c(s2)-c2ccccc2SC3)cc1 | inactive | 
6 | Cc1nc2c(c(C)nn2-c2ccccc2)c(C)c1CCC(=O)NCCc1ccccc1 | inactive | 
7 | CC(C)c1ccc(NC(=O)c2cccc3c2C(=O)N(C2CCCCC2)C3)cc1 | inconclusive [inhibitor, single point] | 
8 | CC1COC2(OC3CC4C5CC(O[C@@H]6O[C@H](C)[C@@H](O[C@@H]7O[C@@H](C)[C@H](O)[C@@H](O)[C@H]7O)[C@H](O)[C@H]6O)C6CC(O)CCC6(C)C5CCC4(C)C3C2C)C(O)C1 (some centres undefined) | inactive | 
9 | C[N+](C)(CCOc1ccccc1)Cc1cccs1 | inactive | 
10 | Cc1ccc(-c2noc(CSc3nnc(Cc4ccccc4)n3-c3cccc(C)c3)n2)cc1 | inconclusive [inhibitor, partial curve, poor fit] | 
11 | CCN(CC)C(=O)c1sc2c(c1C)c(=O)n(Cc1ccccc1)c(=O)n2Cc1ccc(Cl)cc1 | inconclusive [inhibitor, partial curve, poor fit] | 
12 | CC1CCC2C(C(=O)O)=CC3C(O)C(C)(C)CC123 (centres undefined) | inactive | 
13 | Cc1ccc(-c2nnc(Nc3ccc(O)cc3)c3ccccc23)cc1S(=O)(=O)N1CCOCC1 | inconclusive [inhibitor, partial curve, poor fit] | 
14 | CN1CCCN(C(=O)c2cccc(-c3ccc(/C=C4\C(=O)Nc5ccc(Cl)cc54)o3)c2)CC1 | inactive | 
15 | CCOC(=O)c1cc(-c2ccccc2)n(-c2cccc(C(=O)Nc3ccc(OCC)cc3)c2)c1C | inconclusive [inhibitor, partial curve, poor fit] | 
16 | C=CC(C)(/C=C/c1ccc(O)cc1)CCC=C(C)C (centres undefined) | inconclusive [inhibitor, partial curve, poor fit] | 
17 | CCc1ccc(NC(=O)C(CC)n2c(=O)c(C(F)(F)F)nc3ccccc32)cc1 (centres undefined) | inactive | 
18 | Cc1nc2nc(SCC(=O)NCc3ccccc3Cl)nn2c(C)c1Cc1ccccc1 | inconclusive [inhibitor, partial curve, poor fit] | 
19 | COc1cc(NS(=O)(=O)c2ccc3[nH]c4c(c3c2)CCCCCC4)cc(OC)c1 | inconclusive [inhibitor, single point] | 
20 | Cc1ccc(OCc2nc3ccccc3n2CCOc2ccc(Cl)cc2)cc1 | inconclusive [inhibitor, partial curve, poor fit] | 
21 | CC1CCCN(C(=O)c2cc3c(Cl)nc4ccccc4c3s2)C1 (centres undefined) | inactive | 
22 | Cc1cncn1CCc1nc2c3ccccc3nc(SCC(=O)Nc3cccc(Cl)c3)n2n1 | inconclusive [inhibitor, partial curve, poor fit] | 

Row | SMILES | Potency | activity change, negative = inhibition
23 | COCCN1C(=O)c2[nH]nc(-c3cc(C)ccc3O)c2C1c1ccc(C(C)C)cc1 (centres undefined) | inactive | 
24 | COC(=O)c1cnc(N2CCN(c3ccccc3F)CC2)c2ccccc12 | inconclusive [inhibitor, single point] | 
25 | C=C(C(=O)O)C1CCC2(C)CCC(O)C(=C)C2C1 (centres undefined) | inactive | 
26 | COc1ccc(S(=O)(=O)n2ccnc2)cc1C(C)(C)C | inactive | 
27 | CN1CCN(C2=Nc3ccccc3Oc3ccc(Cl)cc32)CC1 | inactive | 
28 | CCc1ccc(C2CC(=O)Nc3cc4c(cc32)OCO4)cc1 (centres undefined) | inactive | 
29 | Cc1ccc(C)c(Nc2nc3c(S(=O)(=O)c4ccc(C(C)C)cc4)nnn3c3ccsc23)c1 | inconclusive [inhibitor, partial curve, poor fit] | 
30 | Cc1ccc(C)c(OCCn2cc(C(=O)c3ccco3)c3ccccc32)c1 | inconclusive [inhibitor, partial curve, poor fit] | 
31 | COc1ccc(-n2nc3c(N4CCCC(C(=O)NCc5cccc(F)c5)C4)nnc(C)c3c2C)cc1 (centres undefined) | inconclusive [inhibitor, single point] | 
32 | CCc1ccc2oc(C(=O)Nc3cccc(C(F)(F)F)c3)cc(=O)c2c1 | inconclusive [inhibitor, single point] | 
33 | Fc1cc(Br)ccc1Nc1c2c(nc3nc(-c4cccs4)nn13)CCCC2 | inconclusive [inhibitor, partial curve, poor fit] | 
34 | COc1ccc(OC)c(CCNc2ncnc3onc(-c4ccc(F)cc4)c23)c1 | inactive | 
35 | CCOc1cccc(NC(=O)C2CC(=O)N(C)C(=Nc3ccc(F)cc3)S2)c1 (centres undefined) | inconclusive [inhibitor, partial curve, poor fit] | 
36 | CC(C)C(=O)Nc1cccc(C(=O)Nc2nnc(CC(C)(C)C)s2)c1 | inactive | 
37 | Cc1cc(Nc2cc(C)c(C#N)c(NC(C)CCCC(C)(C)O)n2)n[nH]1 (centres undefined) | inconclusive [inhibitor, partial curve, poor fit] | 
38 | CCN(CC)CCn1c(-c2ccccc2)csc1=Nc1ccccc1 | inactive | 
39 | CCCC(=O)c1cc(O)c(O)cc1O | inconclusive [inhibitor, partial curve] | 
40 | O=C(Nc1ccc(F)cc1)Nc1ccc2snnc2c1 | inactive | 
41 | COc1ccc(Cl)cc1C1CC(=O)Nc2cc3c(cc21)OCCO3 (centres undefined) | inactive | 
42 | O=C(Cn1c(SCc2ccccc2F)nc2cccnc21)Nc1ccc(F)c(Cl)c1 | inconclusive [inhibitor, single point] | 
43 | Cc1ccc(C(=O)Nc2ccc(Br)cc2)cc1S(=O)(=O)NCc1ccccc1 | inconclusive [inhibitor, single point] | 
44 | Cc1cccc(NS(=O)(=O)c2nnc(NC(=O)c3cccc(C)c3)s2)c1 |  | inconclusive: -38.9% [inhibitor]
